Laboratory results: a collection of fitness landscapes (doi:10.1126/science.1257360)
This is one part of the list.

B1: PhoQ; a variant is named by its letters at X, in order, P23837 (parent)
chain: MKKLLRLFFPLSLRVRFLLATAAVVLVLSLAYGMVALIGYSVSFDKTTFRLLRGESNLFYTLAKWENNKLHVELPENIDKQSPTMTLIYDENGQLLWAQRDVPWLMKMIQPDWLKSNGFHEIEADVNDTSLLLSGDHSIQQQLQEVREDDDDAEMTHSVAVNVYPATSRMPKLTIVVVDTIPVELKSSYMVWSWFIYVLSANLLLVIPLLWVAAWWSLRPIEALAKEVRELEEHNRELLNPATTRELTSLVRNLNRLLKSERERYDKYRTTLTDLTHSLKTPLXXLQXXLRSLRSEKMSVSDAEPVMLEQISRISQQIGYYLHRASMRGGTLLSRELHPVAPLLDNLTSALNKVYQRKGVNISLDISPEISFVGEQNDFVEVMGNVLDNACKYCLEFVEISARQTDEHLYIVVEDDGPGIPLSKREVIFDRGQRVDTLRPGQGVGLAVAREITEQYEGKIVAGESMLGGARMEVIFGRQHSAPKDE

Variants of: B1
Assay: enrichment ratio after two sorts for PhoP signalling (ratio (wild type AVST 3.29)); higher = more functional
Conditions: with PhoP (E. coli)

Row | Variant | enrichment ratio
1 | VHFE | ≤ 0.25
2 | ACEP | ≤ 0.25
3 | AVMI | 15.6
4 | WVPA | ≤ 0.25
5 | LNWK | ≤ 0.25
6 | FRHH | ≤ 0.25
7 | LCCP | ≤ 0.25
8 | KDIM | ≤ 0.25
9 | NHQK | ≤ 0.25
10 | YLPW | ≤ 0.25
11 | PFWF | ≤ 0.25
12 | AFNT | ≤ 0.25
13 | WSRS | ≤ 0.25
14 | TWCP | ≤ 0.25
15 | TGGA | 9.44
16 | SQLA | 11.7
17 | FMDK | ≤ 0.25
18 | MPKH | ≤ 0.25
19 | YQSC | ≤ 0.25
20 | FHEK | ≤ 0.25
21 | HPDE | ≤ 0.25
22 | FANL | ≤ 0.25
23 | NEAI | ≤ 0.25
24 | YVMC | 0.38

Row | Variant | enrichment ratio
25 | PTMN | ≤ 0.25
26 | YYMH | ≤ 0.25
27 | KCDI | ≤ 0.25
28 | DLVD | ≤ 0.25
29 | TTYR | ≤ 0.25
30 | RGVF | ≤ 0.25
31 | MGCF | 0.253
32 | GDYR | ≤ 0.25
33 | VYPL | ≤ 0.25
34 | NGHG | ≤ 0.25
35 | RAYV | ≤ 0.25
36 | YSGG | ≤ 0.25
37 | TRKH | ≤ 0.25
38 | TAKM | ≤ 0.25
39 | DPQE | ≤ 0.25
40 | TKWY | 12.9
41 | WKWH | ≤ 0.25
42 | TWPQ | ≤ 0.25
43 | KSKL | ≤ 0.25
44 | FAGC | ≤ 0.25
45 | VWAS | ≤ 0.25
46 | RNRS | ≤ 0.25
47 | KKNI | ≤ 0.25
48 | PRNM | ≤ 0.25

Row | Variant | enrichment ratio
49 | NAYP | ≤ 0.25
50 | LMKA | ≤ 0.25
51 | VRRY | ≤ 0.25
52 | FADN | ≤ 0.25
53 | EMFC | ≤ 0.25
54 | TIQK | 5.16
55 | VYLT | ≤ 0.25
56 | FCSE | ≤ 0.25
57 | HWCV | ≤ 0.25
58 | FINS | ≤ 0.25
59 | MDIP | ≤ 0.25
60 | LWIH | ≤ 0.25
61 | ACWP | ≤ 0.25
62 | TQHL | 7.82
63 | FEYW | ≤ 0.25
64 | VPQF | ≤ 0.25
65 | VFSN | ≤ 0.25
66 | GFTN | ≤ 0.25
67 | FAVY | ≤ 0.25
68 | WDTC | ≤ 0.25
69 | HMYH | ≤ 0.25
70 | LWQN | ≤ 0.25
71 | VSAS | ≤ 0.25
72 | DGCK | ≤ 0.25

Row | Variant | enrichment ratio
73 | QAIR | ≤ 0.25
74 | PFIC | ≤ 0.25
75 | NVRE | ≤ 0.25
76 | FQYE | ≤ 0.25
77 | DYGN | ≤ 0.25
78 | SKVK | ≤ 0.25
79 | HIIP | ≤ 0.25
80 | IDDQ | ≤ 0.25
81 | LRVY | ≤ 0.25
82 | FWKR | ≤ 0.25
83 | DRVY | ≤ 0.25
84 | WNAF | ≤ 0.25
85 | LTMN | ≤ 0.25
86 | IAPE | ≤ 0.25
87 | VHEV | ≤ 0.25
88 | NVFL | ≤ 0.25
89 | LKQW | ≤ 0.25
90 | KYFS | ≤ 0.25
91 | HVRH | ≤ 0.25
92 | LMQT | ≤ 0.25
93 | YFEC | ≤ 0.25
94 | QSYE | 1.41
95 | EWFR | ≤ 0.25
96 | EKHS | ≤ 0.25

Row | Variant | enrichment ratio
97 | SCNH | 3.51
98 | GECQ | 17
99 | GNAY | ≤ 0.25
100 | DYSV | ≤ 0.25
101 | TYVW | ≤ 0.25
102 | NMVG | ≤ 0.25
103 | PSNW | ≤ 0.25
104 | FDDT | ≤ 0.25
105 | AGCS | 10.8
106 | DLHP | ≤ 0.25
107 | TDCQ | 20.3
108 | WYHY | 0.671
109 | KFDP | ≤ 0.25
110 | PPIH | ≤ 0.25
111 | RVWI | ≤ 0.25
112 | YRNV | ≤ 0.25
113 | IGIG | ≤ 0.25
114 | HDIH | ≤ 0.25
115 | MDNI | ≤ 0.25
116 | GWTD | ≤ 0.25
117 | RALQ | ≤ 0.25
118 | MRYK | ≤ 0.25
119 | MITH | ≤ 0.25
120 | FTIA | ≤ 0.25

Row | Variant | enrichment ratio
121 | TVKH | ≤ 0.25
122 | SRFP | ≤ 0.25
123 | IGSA | ≤ 0.25
124 | STWF | ≤ 0.25
125 | CISQ | 55.8
126 | WDMR | ≤ 0.25
127 | HENC | ≤ 0.25
128 | IKCD | ≤ 0.25
129 | WCLL | 0.851
130 | HHSQ | ≤ 0.25
131 | QSDP | ≤ 0.25
132 | SYKH | ≤ 0.25
133 | KNGR | ≤ 0.25
134 | QNKC | ≤ 0.25
135 | IDVQ | ≤ 0.25
136 | DIFK | ≤ 0.25
137 | LMRK | ≤ 0.25
138 | ESEL | ≤ 0.25
139 | AGFI | ≤ 0.25
140 | QYSC | ≤ 0.25
141 | PFNW | ≤ 0.25
142 | VFWA | ≤ 0.25
143 | CTPH | ≤ 0.25
144 | IIVH | ≤ 0.25

Row | Variant | enrichment ratio
145 | GRQG | ≤ 0.25
146 | NAQN | ≤ 0.25
147 | LPSY | ≤ 0.25
148 | MATN | ≤ 0.25
149 | YCDP | ≤ 0.25
150 | ALVT | 1.4
151 | RHDT | ≤ 0.25
152 | EQLC | ≤ 0.25
153 | NVNF | ≤ 0.25
154 | LEWI | 2.42
155 | GAGK | ≤ 0.25
156 | TWLV | ≤ 0.25
157 | FDSE | ≤ 0.25
158 | KHVI | ≤ 0.25
159 | QNTT | ≤ 0.25
160 | MERR | ≤ 0.25
161 | EEFV | ≤ 0.25
162 | HQML | ≤ 0.25
163 | RTYM | ≤ 0.25
164 | NLEK | ≤ 0.25
165 | NRNN | ≤ 0.25
166 | DNIT | ≤ 0.25
167 | THWQ | ≤ 0.25
168 | VTPG | ≤ 0.25

Row | Variant | enrichment ratio
169 | DPDQ | ≤ 0.25
170 | SLKL | ≤ 0.25
171 | NWDS | ≤ 0.25
172 | VLDC | ≤ 0.25
173 | MKAK | ≤ 0.25
174 | LTIF | ≤ 0.25
175 | AGST | 14.8
176 | YDEW | ≤ 0.25
177 | VFHI | ≤ 0.25
178 | NLNP | ≤ 0.25
179 | LCLD | ≤ 0.25
180 | MFFN | ≤ 0.25
181 | ETDW | ≤ 0.25
182 | WGTY | ≤ 0.25
183 | HAAI | ≤ 0.25
184 | RQCW | ≤ 0.25
185 | STMY | 12.6
186 | APAC | ≤ 0.25
187 | MQSA | ≤ 0.25
188 | SLRG | ≤ 0.25
189 | VQYC | ≤ 0.25
190 | IIYM | ≤ 0.25
191 | RIDK | ≤ 0.25
192 | GGIC | 5.5

Row | Variant | enrichment ratio
193 | EKRA | ≤ 0.25
194 | NLAY | ≤ 0.25
195 | DFIY | ≤ 0.25
196 | PDPT | ≤ 0.25
197 | FLRE | ≤ 0.25
198 | EEWI | ≤ 0.25
199 | HLDW | ≤ 0.25
200 | FFEW | ≤ 0.25
201 | AYHT | ≤ 0.25
202 | TGHP | ≤ 0.25
203 | QDQC | ≤ 0.25
204 | TTYY | 2.55
205 | PANA | ≤ 0.25
206 | LQNE | ≤ 0.25
207 | VVTG | ≤ 0.25
208 | DYKN | ≤ 0.25
209 | SSEW | ≤ 0.25
210 | DDGL | ≤ 0.25
211 | YWMY | ≤ 0.25
212 | RLLY | ≤ 0.25
213 | LKAY | ≤ 0.25
214 | KQVH | ≤ 0.25
215 | FAMH | ≤ 0.25
216 | HRFM | ≤ 0.25

Row | Variant | enrichment ratio
217 | PMWD | ≤ 0.25
218 | QDCM | ≤ 0.25
219 | KANA | ≤ 0.25
220 | FRLH | ≤ 0.25
221 | RGYT | ≤ 0.25
222 | ISYP | ≤ 0.25
223 | HDQE | ≤ 0.25
224 | YADY | ≤ 0.25
225 | RCPE | ≤ 0.25
226 | IDWV | ≤ 0.25
227 | TDFM | ≤ 0.25
228 | TFDP | ≤ 0.25
229 | ASTD | ≤ 0.25
230 | PHPK | ≤ 0.25
231 | SRFD | ≤ 0.25
232 | YNIY | ≤ 0.25
233 | IRDI | ≤ 0.25
234 | NHFL | ≤ 0.25
235 | QIHP | ≤ 0.25
236 | IVYW | ≤ 0.25
237 | EGAP | ≤ 0.25
238 | PFSG | ≤ 0.25
239 | ALSP | ≤ 0.25
240 | GGNF | ≤ 0.25

Row | Variant | enrichment ratio
241 | KMFW | ≤ 0.25
242 | YGTK | ≤ 0.25
243 | NSHV | ≤ 0.25
244 | GYPP | ≤ 0.25
245 | VRQH | ≤ 0.25
246 | QMRS | ≤ 0.25
247 | RGWL | ≤ 0.25
248 | WMNM | ≤ 0.25
249 | YYWA | ≤ 0.25
250 | QKYA | ≤ 0.25
251 | EDSD | ≤ 0.25
252 | TAAR | ≤ 0.25
253 | THCR | ≤ 0.25
254 | QLYG | ≤ 0.25
255 | HSWI | ≤ 0.25
256 | DQNC | ≤ 0.25
257 | WQVN | ≤ 0.25
258 | PAIV | ≤ 0.25
259 | GWMC | ≤ 0.25
260 | DSTK | ≤ 0.25
261 | DNWY | ≤ 0.25
262 | LMMK | ≤ 0.25
263 | IYQY | ≤ 0.25
264 | YRGA | ≤ 0.25

Row | Variant | enrichment ratio
265 | DIVT | ≤ 0.25
266 | QVVC | ≤ 0.25
267 | NLPC | ≤ 0.25
268 | LFAS | ≤ 0.25
269 | QYWA | 0.652
270 | LKTL | ≤ 0.25
271 | VTKH | ≤ 0.25
272 | WISF | ≤ 0.25
273 | GDEL | ≤ 0.25
274 | AMPH | ≤ 0.25
275 | FWNY | ≤ 0.25
276 | GTCG | 7.53
277 | ACCN | 12.1
278 | DNPH | ≤ 0.25
279 | SYVQ | ≤ 0.25
280 | VDFQ | ≤ 0.25
281 | EQDA | ≤ 0.25
282 | EYNT | ≤ 0.25
283 | AFVI | ≤ 0.25
284 | LQHQ | ≤ 0.25
285 | TGQY | 5.59
286 | AKWD | ≤ 0.25
287 | FKMK | ≤ 0.25
288 | YQKP | ≤ 0.25

Row | Variant | enrichment ratio
289 | VRRK | ≤ 0.25
290 | DPVH | ≤ 0.25
291 | RCTD | ≤ 0.25
292 | PIPW | ≤ 0.25
293 | TLDG | ≤ 0.25
294 | QLRS | ≤ 0.25
295 | RCDW | ≤ 0.25
296 | SAYH | ≤ 0.25
297 | AHCI | 4.38
298 | HYYC | ≤ 0.25
299 | WGFI | ≤ 0.25
300 | VMYV | ≤ 0.25
301 | KGNG | ≤ 0.25
302 | RHTQ | ≤ 0.25
303 | LGNF | ≤ 0.25
304 | YIFR | 0.278
305 | LHGN | ≤ 0.25
306 | WHYM | ≤ 0.25
